# Data published in paper PMC4336329 (PLoS ONE, 2015).
# The whole screen tested about 310,000 compounds, of which about 14,000 (4.5%) showed an effect of 50% or more. The effect is printed as a negative number. The list shows a part of the results.
# Target: human ether-à-go-go-related gene (hERG) potassium channel (human, UniProt Q12809)
# Assay: primary screen, population patch clamp on CHO cells stably expressing hERG
# 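Note: peak tail current of the secondary pulse compared with the same well before compound.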
# Sequence of human ether-à-go-go-related gene (hERG) potassium channel (Q12809 whole entry, looked up): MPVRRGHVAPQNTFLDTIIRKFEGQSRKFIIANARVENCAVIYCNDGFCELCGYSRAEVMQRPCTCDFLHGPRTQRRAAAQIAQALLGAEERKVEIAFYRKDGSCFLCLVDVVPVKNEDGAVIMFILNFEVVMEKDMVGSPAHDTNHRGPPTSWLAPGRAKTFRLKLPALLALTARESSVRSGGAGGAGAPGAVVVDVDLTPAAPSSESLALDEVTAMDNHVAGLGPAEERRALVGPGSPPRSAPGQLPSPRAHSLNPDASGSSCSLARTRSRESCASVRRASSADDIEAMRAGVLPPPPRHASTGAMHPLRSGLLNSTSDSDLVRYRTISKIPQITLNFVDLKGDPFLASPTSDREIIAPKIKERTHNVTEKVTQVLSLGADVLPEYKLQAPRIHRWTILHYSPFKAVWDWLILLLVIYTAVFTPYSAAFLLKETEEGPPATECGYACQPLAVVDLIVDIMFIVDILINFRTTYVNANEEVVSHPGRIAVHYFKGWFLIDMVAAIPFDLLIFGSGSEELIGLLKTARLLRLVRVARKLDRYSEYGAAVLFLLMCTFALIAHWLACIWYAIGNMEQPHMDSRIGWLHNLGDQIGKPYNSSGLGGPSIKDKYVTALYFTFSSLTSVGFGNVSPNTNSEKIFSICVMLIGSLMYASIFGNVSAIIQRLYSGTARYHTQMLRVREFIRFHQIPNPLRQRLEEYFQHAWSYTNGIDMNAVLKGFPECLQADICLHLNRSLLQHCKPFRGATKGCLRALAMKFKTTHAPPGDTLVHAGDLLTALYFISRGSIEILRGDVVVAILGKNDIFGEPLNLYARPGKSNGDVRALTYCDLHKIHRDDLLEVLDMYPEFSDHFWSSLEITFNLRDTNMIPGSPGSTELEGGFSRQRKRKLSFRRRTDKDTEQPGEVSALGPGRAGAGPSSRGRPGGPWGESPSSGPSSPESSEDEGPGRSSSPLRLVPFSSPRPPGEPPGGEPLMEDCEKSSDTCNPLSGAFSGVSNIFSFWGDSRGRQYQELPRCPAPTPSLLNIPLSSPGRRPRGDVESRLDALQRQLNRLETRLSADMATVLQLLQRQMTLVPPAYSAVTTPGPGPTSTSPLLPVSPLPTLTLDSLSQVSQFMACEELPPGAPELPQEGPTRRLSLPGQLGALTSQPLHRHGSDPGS
row,SMILES,"hERG current change (%, negative = inhibition) at 10uM [%]"
1,CC1(C)CC2CC(C)(CN2C(=O)c2ccccc2)C1 (stereo not shown),8.08
2,C[C@@]12C(=O)Nc3ccc(Br)cc3C(=O)N1[C@H]1c3cc(Cl)ccc3OC[C@@H]1[C@@H]2c1ccccc1,18.5
3,COC(=O)c1ccc(C2C(C(C)=O)=C(C)Nc3ncnn32)cc1 (stereo not shown),4.75
4,Cc1ccc(SCc2[nH]nc3c2C(C(C)C)C(C#N)=C(N)O3)cc1 (stereo not shown),20.3
5,C/C(=N\NC(=O)Cc1ccc(Cl)cc1)c1cccnc1,2.45
6,COc1cccc(/C=C2\SC(=S)N(C(C)C(=O)NC3C=CS(=O)(=O)C3)C2=O)c1 (stereo not shown),14.6
7,CCN(CC)CCCNC(=O)N[C@@H](Cc1ccccc1)C(=O)O,9.59
8,CC1CCN(C(=O)c2ccc(S(=O)(=O)Cc3ccccc3F)c([N+](=O)[O-])c2)CC1,9.69
9,O=C1OC(Nc2ccc(F)c([N+](=O)[O-])c2)c2ccccc21 (stereo not shown),-1.46
10,CC(C)N(Cc1ccccc1)C(=O)CN1C(=O)COc2ccc(S(=O)(=O)N3CCCCCC3)cc21,2.42
11,C1=CC2c3ccccc3NC(c3ccncc3)C2C1 (stereo not shown),-10.5
12,Cn1c(=O)c(-c2ccccc2)nn2c3ccccc3nc12,5.3
13,Cc1ccccc1C(C(=O)NCc1ccccc1)N(Cc1ccco1)C(=O)c1ccccn1 (stereo not shown),-10.3
14,CN(CC(=O)Nc1ccc(F)cc1)C(=O)C1CCN(C(=O)Nc2ccccc2)CC1,-11.3
15,CCC(=O)Nc1ccc(-c2nnc(SCC(=O)NCC3CCCO3)n2C)cc1 (stereo not shown),20.6
16,N#CCCSCc1ccc(C(=O)O)o1,4.52
17,O=C(NCCCN1CCCC1=O)c1ccc(S(=O)(=O)Nc2ccccc2F)cc1,7.51
18,COc1ccc(CCNC(=O)CCCCCN2C(=O)c3ccccc3C2=O)cc1OC,-14.6
19,COCCNCc1nc2sc(C)c(-c3ccccc3)c2c(=O)[nH]1.O=C(O)C(=O)O,-0.995
20,CCOC(=O)O[C@]1(C(=O)COC(=O)CC)CC[C@H]2[C@@H]3CCC4=CC(=O)C=C[C@]4(C)[C@H]3[C@@H](O)C[C@@]21C,-7.31
21,O=C(CCCN1C(=O)/C(=C/c2ccc3c(c2)OCO3)SC1=S)Nc1cccc(C(=O)O)c1,11.1
22,Cc1ccc(OCC(=O)Nc2ccc(N3CCN(C(=O)c4ccco4)CC3)cc2)cc1,-56.1

row,SMILES,"hERG current change (%, negative = inhibition) at 10uM [%]"
1,Cc1ccc(S(=O)(=O)NCc2ccc(C(=O)NC3CC3)cc2)cc1,-9.14
2,CCC(C)NC(=O)CCS(=O)(=O)c1ccc2c(c1)n(C)c(=O)c(=O)n2C (stereo not shown),-17.4
3,CCn1cc(C(=O)O)c(=O)c2cc(F)c(N3CCN(C(=S)NC(=O)c4cccc(F)c4)CC3)cc21,5.44
4,Cc1ccc2[nH]c3c(=O)n(CCC4=CCCCC4)cnc3c2c1,4.95
5,NC(=O)c1cccc2c(=O)oc3ccccc3c12,0.534
6,COc1cccc(NC(=S)NCCN2CCOCC2)c1,11.5
7,Cc1[nH]nc2nc(SCC(=O)NC3CCCCC3)n(-c3ccc(Br)cc3)c(=N)c12,9.54
8,CCOc1cc(NC(=S)NCC2CCCO2)c(OCC)cc1NC(=O)c1ccc(OC)cc1 (stereo not shown),-0.542
9,CO/N=C/c1c(-c2ccccc2)nn(C)c1Cl,10.6
10,Cn1ccsc1=NC(=O)c1cccc(C#N)c1,15.6
11,CCNC(=S)SCCOc1ccccc1C,17
12,NC(=O)C1(N2CCCCC2)CCN(C(=S)Nc2cc(F)cc(F)c2)CC1,-7.5
13,Cc1ccc2nc3sc(C(=O)N4CCCc5ccccc54)c(N)c3cc2c1,2.69
14,CN1CC(C(=O)c2ccc(Cl)cc2)C(c2ccccc2)C1 (stereo not shown),-31.8
15,C/C(CC(=O)Nc1ccc(N(C)C)cc1)=N\NC(=O)c1ccc([N+](=O)[O-])cc1,-12.3
16,CC(C)C(=O)O/N=C(\N)c1ccc(Oc2ccc(Cl)cc2)c([N+](=O)[O-])c1,3.35
17,O=C(CSc1nnc2c(n1)[nH]c1ccccc12)NCc1ccccc1F,-0.0777
18,O=C(CCn1c(=O)oc2ccccc21)NCc1ccco1,15.9
19,COc1ccc(CCN2C(=NC(=O)CC(C)C)SC3CS(=O)(=O)CC32)cc1OC (stereo not shown),-12.1
20,NS(=O)(=O)c1ccc(N=C2C(=O)Nc3ccccc32)cc1,11.7
21,CC1=NN=C(c2ccc(N)cc2)c2cc3c(cc2C1)OCO3.Cl,5.04
